Reference: the supplement of paper PMC12217912
This is one part of the list. The full chains were built here from the parent and the listed change. Values near 0.05 are background.

B1: TEV protease; numbered along this chain (parent)
chain: MGESLFKGPRDYNPISSSICHLTNESDGHTTSLYGIGFGPFIITNKHLFRRNNGTLVVQSLHGVFKVKDTTTLQQHLVDGRDMIIIRMPKDFPPFPQKLKFREPQREERICLVTTNFQTKSMSSMVSDTSCTFPSGDGIFWKHWIQTKDGQCGSPLVSTRDGFIVGIHSASNFTNTNNYFTSVPKNFMELLTNQEAQQWVSGWRLNADSVLWGGHKVFMVKPEEPFQPVKEATQL

Variants of: B1
Assay: raw area under fraction-flipped curve 0-4 h after induction (AUC4h, not background-subtracted), DNA-recorder readout of cleavage of the substrate (dimensionless); higher = more cleavage of the substrate by the protease variant
Settings: temperature: 34 °C; time window: 0-4 h after rhamnose induction
Description: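 In vivo DNA recorder in E. coli TOP10(DE3) ΔrhaA at 34 °C. Each TEVp single-site mutant (parent TEVp 0) is paired with a single-site variant of the 7-mer TEVs (canonical ENLYFQ|S). The substrate sits between flexible linkers in a Bxb1-sfGFP-TEVs-SsrA fusion, so cleavage stabilises Bxb1 and speeds flipping of a recombination array, read by NGS. The value is the raw area under the fraction-flipped curve over 0-4 h after rhamnose induction (AUC4h), with ≥20 reads per time point. It is not background-subtracted; inactive controls average about 0.047.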
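Note: Bxb1 expression induced with 0.2% (w/v) L-rhamnose at OD600 near 0.5, cultures sampled hourly, flipped fraction per protease–substrate barcode pair counted by paired-end Illumina sequencing.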

Variant | area with substrate ENLAFQS | area with substrate ENLDFQS | area with substrate ENLEFQS | area with substrate ENLFFQS | area with substrate ENLHFQS | area with substrate ENLIFQS | area with substrate ENLKFQS | area with substrate ENLLFQS | area with substrate ENLMFQS | area with substrate ENLNFQS | area with substrate ENLRFQS | area with substrate ENLSFQS | area with substrate ENLTFQS | area with substrate ENLCFQS | area with substrate ENLPFQS | area with substrate ENLVFQS | area with substrate ENLWFQS | area with substrate ENLGFQS | area with substrate ENLQFQS
MGESLFKGPRDYNPISSSICHLTNESDGHTTSLYGIGFGPFIITNKHLFRRNNGTLVVQDLHGVFKVKDTTTLQQHLVDGRDMIIIRMPKDFPPFPQKLKFREPQREERICLVTTNFQTKSMSSMVSDTSCTFPSGDGIFWKHWIQTKDGQCGSPLVSTRDGFIVGIHSASNFTNTNNYFTSVPKNFMELLTNQEAQQWVSGWRLNADSVLWGGHKVFMVKPEEPFQPVKEATQL [S60D] | 0.0411 | 0.0554 | 0.0632 | 0.0824 | 0.0691 | 0.0715 | 0.0697 | 0.0659 | 0.0822 | 0.0616 | 0.0636 | 0.0704 | 0.0503 |  |  |  |  |  | 
MGESLFKGPRDYNPISSSICHLTNESDGHTTSLYGIGFGPFIITNKHLFRRNNGTLVVQELHGVFKVKDTTTLQQHLVDGRDMIIIRMPKDFPPFPQKLKFREPQREERICLVTTNFQTKSMSSMVSDTSCTFPSGDGIFWKHWIQTKDGQCGSPLVSTRDGFIVGIHSASNFTNTNNYFTSVPKNFMELLTNQEAQQWVSGWRLNADSVLWGGHKVFMVKPEEPFQPVKEATQL [S60E] | 0.0494 | 0.0502 | 0.0535 | 0.0499 | 0.0469 | 0.0561 | 0.0536 | 0.0531 | 0.0544 | 0.0608 |  | 0.047 | 0.0611 | 0.0532 | 0.0483 | 0.0738 | 0.0358 |  | 
MGESLFKGPRDYNPISSSICHLTNESDGHTTSLYGIGFGPFIITNKHLFRRNNGTLVVQQLHGVFKVKDTTTLQQHLVDGRDMIIIRMPKDFPPFPQKLKFREPQREERICLVTTNFQTKSMSSMVSDTSCTFPSGDGIFWKHWIQTKDGQCGSPLVSTRDGFIVGIHSASNFTNTNNYFTSVPKNFMELLTNQEAQQWVSGWRLNADSVLWGGHKVFMVKPEEPFQPVKEATQL [S60Q] | 0.0487 | 0.0683 | 0.064 | 0.0857 | 0.0697 | 0.0691 | 0.0658 | 0.0776 | 0.0693 | 0.0676 |  | 0.0767 |  |  | 0.0511 |  |  | 0.0871 | 
MGESLFKGPRDYNPISSSICHLTNESDGHTTSLYGIGFGPFIITNKHLFRRNNGTLVVQSDHGVFKVKDTTTLQQHLVDGRDMIIIRMPKDFPPFPQKLKFREPQREERICLVTTNFQTKSMSSMVSDTSCTFPSGDGIFWKHWIQTKDGQCGSPLVSTRDGFIVGIHSASNFTNTNNYFTSVPKNFMELLTNQEAQQWVSGWRLNADSVLWGGHKVFMVKPEEPFQPVKEATQL [L61D] | 0.0727 | 0.0592 | 0.0466 | 0.084 | 0.074 |  | 0.078 | 0.0523 | 0.0766 |  | 0.0718 | 0.0473 |  |  | 0.0477 |  | 0.0847 | 0.0621 | 0.0652
MGESLFKGPRDYNPISSSICHLTNESDGHTTSLYGIGFGPFIITNKHLFRRNNGTLVVQSLHDVFKVKDTTTLQQHLVDGRDMIIIRMPKDFPPFPQKLKFREPQREERICLVTTNFQTKSMSSMVSDTSCTFPSGDGIFWKHWIQTKDGQCGSPLVSTRDGFIVGIHSASNFTNTNNYFTSVPKNFMELLTNQEAQQWVSGWRLNADSVLWGGHKVFMVKPEEPFQPVKEATQL [G63D] | 0.0336 | 0.105 | 0.056 | 0.0849 | 0.0541 | 0.0675 | 0.0476 |  |  | 0.056 | 0.0642 | 0.0503 |  | 0.0806 | 0.059 | 0.0698 |  | 0.0463 | 0.0603
MGESLFKGPRDYNPISSSICHLTNESDGHTTSLYGIGFGPFIITNKHLFRRNNGTLVVQSLHGVTKVKDTTTLQQHLVDGRDMIIIRMPKDFPPFPQKLKFREPQREERICLVTTNFQTKSMSSMVSDTSCTFPSGDGIFWKHWIQTKDGQCGSPLVSTRDGFIVGIHSASNFTNTNNYFTSVPKNFMELLTNQEAQQWVSGWRLNADSVLWGGHKVFMVKPEEPFQPVKEATQL [F65T] | 0.0519 | 0.0493 | 0.0512 | 0.0722 | 0.0621 |  | 0.071 |  | 0.0676 | 0.0694 | 0.063 | 0.0739 | 0.0533 | 0.0911 | 0.0581 | 0.0763 | 0.0526 |  | 0.0496
MGESLFKGPRDYNPISSSICHLTNESDGHTTSLYGIGFGPFIITNKHLFRRNNGTLVVQSLHGVFKVEDTTTLQQHLVDGRDMIIIRMPKDFPPFPQKLKFREPQREERICLVTTNFQTKSMSSMVSDTSCTFPSGDGIFWKHWIQTKDGQCGSPLVSTRDGFIVGIHSASNFTNTNNYFTSVPKNFMELLTNQEAQQWVSGWRLNADSVLWGGHKVFMVKPEEPFQPVKEATQL [K68E] | 0.0706 | 0.0608 | 0.061 | 0.0853 | 0.0614 | 0.102 | 0.0759 | 0.0777 | 0.0835 | 0.0667 |  | 0.0574 |  | 0.1 |  | 0.101 | 0.075 | 0.0644 | 
MGESLFKGPRDYNPISSSICHLTNESDGHTTSLYGIGFGPFIITNKHLFRRNNGTLVVQSLHGVFKVLDTTTLQQHLVDGRDMIIIRMPKDFPPFPQKLKFREPQREERICLVTTNFQTKSMSSMVSDTSCTFPSGDGIFWKHWIQTKDGQCGSPLVSTRDGFIVGIHSASNFTNTNNYFTSVPKNFMELLTNQEAQQWVSGWRLNADSVLWGGHKVFMVKPEEPFQPVKEATQL [K68L] | 0.0636 | 0.0577 | 0.0704 | 0.0793 | 0.0752 | 0.0795 | 0.0686 | 0.0763 | 0.0694 | 0.0607 | 0.0702 | 0.0615 |  | 0.0743 | 0.0441 | 0.0623 | 0.0636 |  | 
MGESLFKGPRDYNPISSSICHLTNESDGHTTSLYGIGFGPFIITNKHLFRRNNGTLVVQSLHGVFKVQDTTTLQQHLVDGRDMIIIRMPKDFPPFPQKLKFREPQREERICLVTTNFQTKSMSSMVSDTSCTFPSGDGIFWKHWIQTKDGQCGSPLVSTRDGFIVGIHSASNFTNTNNYFTSVPKNFMELLTNQEAQQWVSGWRLNADSVLWGGHKVFMVKPEEPFQPVKEATQL [K68Q] | 0.0854 | 0.0711 |  | 0.0648 | 0.0686 | 0.0813 | 0.0929 | 0.0669 | 0.0625 | 0.0704 | 0.0906 |  |  | 0.0465 |  |  | 0.0705 | 0.0587 | 0.061
